Assay results from PubChem BioAssay AID485294 (National Center for Advancing Translational Sciences (NCATS), 2010).
The whole screen tested about 370,000 compounds, of which about 150 (0.041%) were called active. The inconclusive results got no clear call from the source; some entries with a clear call stand among them for comparison. The call rests on the fitted dose curve; in most records, active means well fitted inhibition curve with a large enough effect; inconclusive means small, poorly fitted or top-dose-only effect; inactive means flat fitted curve, though single readings scatter. Potencies of inconclusive entries are left out as doubtful fits.

target: Beta-lactamase (Escherichia coli (strain K12)) (UniProt P00811); test: qHTS Inhibitors of AmpC Beta-Lactamase (assay with detergent); details: AmpC hydrolysis of nitrocefin, absorbance 480 nm, 0.01% Triton; activity change, negative = inhibition: at 114 µM (top of the series); further: nearly all actives have a fitted effect of over 25% in size;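 on activity change, negative = inhibition: 0% = no-compound wells and -100% = no-enzyme wells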
Sequence of UniProt P00811 (P00811 whole entry, looked up): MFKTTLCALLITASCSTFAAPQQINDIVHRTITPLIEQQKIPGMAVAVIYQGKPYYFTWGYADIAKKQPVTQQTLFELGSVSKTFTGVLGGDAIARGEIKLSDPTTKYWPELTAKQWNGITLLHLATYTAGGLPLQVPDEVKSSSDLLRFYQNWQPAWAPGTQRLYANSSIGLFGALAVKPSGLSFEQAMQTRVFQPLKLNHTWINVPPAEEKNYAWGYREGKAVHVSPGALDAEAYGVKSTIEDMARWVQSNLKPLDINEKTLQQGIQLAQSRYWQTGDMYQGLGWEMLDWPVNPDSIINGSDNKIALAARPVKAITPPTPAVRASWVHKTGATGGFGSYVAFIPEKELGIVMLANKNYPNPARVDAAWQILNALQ
Summary of the method: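 20 mM phosphate pH 7.0 + 0.01% (detergent screen) or 0.0001% Triton X-100; 5.3 nM AmpC reagent; cpd preinc 15 min RT; nitrocefin (800 uM stock) to start; A480 q20 s × 4 min; Activity was normalised to no-enzyme and no-compound control wells.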
Potency means the concentration at half of the fitted maximal effect; tags describe the fitted curve by direction and shape.

Row | SMILES | activity change, negative = inhibition | Potency
1 | O=C(CCc1nc(-c2ccccc2F)no1)Nc1cccnc1 | inactive: 3.42% | 
2 | Cc1c(C(=O)Nc2ccccc2)sc2nc[nH]c(=O)c12 |  | inconclusive [inhibitor, partial curve, poor fit]
3 | COC(=O)CSc1nc(C)cc(Oc2ccccc2)n1 |  | inconclusive [inhibitor, single point]
4 | CCCCC(=O)Nc1ccc(NC(=O)C(C)C)cn1 |  | inconclusive [inhibitor, full curve]
5 | Cc1ccc(CN(Cc2cc3cc(C)ccc3[nH]c2=O)C(=O)N2CCOCC2)cc1 |  | inconclusive [inhibitor, partial curve, poor fit]
6 | COc1ccc(/C=C2\SC(=S)N(CC(=O)OCC(=O)Nc3cc(Cl)cc(Cl)c3)C2=O)cc1 | inactive: 7.84% | 
7 | CC1CCCCN1C(=O)CSc1nnc(-c2ccc(Cl)s2)o1 (centres undefined) |  | inconclusive [inhibitor, partial curve, poor fit]
8 | O=C(Nc1ccc(-n2cc(Cl)cn2)cc1)c1ccncc1 |  | inconclusive [inhibitor, single point]
9 | COc1ccccc1CNS(=O)(=O)c1ccc2c(c1)CC(C)N2C(=O)C1CCC1 (centres undefined) |  | inconclusive [inhibitor, full curve, poor fit]
10 | Cn1cccc1/C=N\NC(=O)c1cncc(Br)c1 | inactive: -2.08% | 
11 | CCOC(=O)N1CCN(C(=O)COC(=O)C2CCN(S(=O)(=O)c3c(C)c(C)cc(C)c3C)CC2)CC1 |  | inconclusive [inhibitor, full curve, poor fit]
12 | COc1cccc(C(=O)OCCCN(C)C)c1 | inactive: -8.71% | 
13 | CC(C)NC(=O)C1CCN(C(=O)c2cc3sccc3n2Cc2ccc(F)cc2)CC1 | inactive: -2.39% | 
14 | CC(Sc1nc(-c2ccccc2)cc(C(F)(F)F)n1)C(=O)NCCN1CCOCC1 (centres undefined) |  | inconclusive [inhibitor, full curve, poor fit]
15 | CCCCn1c(SCc2nc3ccccc3s2)nc2cc(S(N)(=O)=O)ccc21 | inactive: -11.7% | 
16 | O=C(CSC1=Nc2ccccc2N=C(c2ccc(F)cc2)C1)Nc1ccc(Cl)cc1 | inactive: 3.59% | 
17 | Cc1oc(-c2cccs2)nc1CN1CCN(CC(C)C)C(CCO)C1 (centres undefined) | inactive: 2.69% | 
18 | CCOCc1c(C(=O)NC2=Nc3ccccc3NC(CC)=C2C(=O)OCC)oc2ccccc12 |  | inconclusive [inhibitor, full curve, poor fit]
19 | Cc1ccc2c(c1)COc1c3ccc(C(=O)O)cc3nn1-2 |  | inconclusive [inhibitor, partial curve, poor fit]
20 | O=C(COC(=O)CN1C(=O)C2CC=CCC2C1=O)Nc1cc(C(F)(F)F)ccc1N1CCOCC1 (centres undefined) |  | inconclusive [inhibitor, partial curve, poor fit]
21 | Cc1nc2ncccn2c1-c1csc(Nc2ccc(S(N)(=O)=O)cc2)n1 |  | inconclusive [inhibitor, full curve, poor fit]
22 | NCCCCCNC(=O)/C=N\O | inactive: -1.64% | 
23 | Cc1ccc(OCCNC(=O)C2CCCCC2)cc1 |  | inconclusive [inhibitor, single point]

Row | SMILES | activity change, negative = inhibition | Potency
24 | CN(CCCC1CCCC1)C(=O)c1cc(COc2ccc(F)cc2F)on1 | inactive: 3.67% | 
25 | CCOC(=O)/C(=N\Nc1ncnc2ccccc12)c1ccc(OC)cc1 | inactive: -9.95% | 
26 | CCOC(=O)c1ccc(NC(=O)CN2CCc3ccccc3C2)cc1 |  | inconclusive [inhibitor, single point]
27 | COc1ccc2[nH]c(CN3CCC(n4nccc4NC(=O)C4CC4)CC3)c(C)c2c1 |  | inconclusive [inhibitor, full curve, poor fit]
28 | CCOc1ccccc1C(=O)Nc1ccc(S(=O)(=O)Nc2ncccn2)cc1 |  | inconclusive [inhibitor, single point]
29 | Cc1cc(S(=O)(=O)N2CCN(C(=O)c3ccco3)CC2)ccc1F |  | inconclusive [inhibitor, single point]
30 | CCOc1ccc(-c2nnc(SCC(=O)N3CCN(c4ccccc4)CC3)o2)cc1 |  | inconclusive [inhibitor, full curve, poor fit]
31 | Cc1cc(-c2ccc(N3CCOCC3)cc2)nc2ccccc12 | inactive: -10% | 
32 | Cc1ccc(NC(=S)NC2CCN(Cc3ccccc3)CC2)c(C)c1 |  | inconclusive [inhibitor, single point]
33 | Nc1c(C(=O)Nc2ccccc2)c2nc3ccccc3nc2n1-c1ccc(O)cc1 | inactive: -1.24% | 
34 | CS(=O)(=O)N(CCc1ccccc1)CC(=O)N1CCN(Cc2ccc3c(c2)OCO3)CC1 | inactive: 0.959% | 
35 | C=CCNC(=S)N1CCN(CCN=CC2=C(O)CC(c3ccc(Cl)cc3)CC2=O)CC1 (centres undefined) |  | inconclusive [inhibitor, full curve, poor fit]
36 | CN(Cc1ccccc1)C(=O)c1cc(-c2cccc(Cl)c2)on1 | inactive: -4.46% | 
37 | Cc1ccc(N2C(=O)CC(Sc3nc(-c4ccccc4)c4cc(Cl)ccc4n3)C2=O)c(C)c1 (centres undefined) |  | inconclusive [inhibitor, single point]
38 | CCN1C(=O)c2ccccc2S(=O)c2ccc(C(=O)N3CCN(c4ccccc4OC)CC3)cc21 (centres undefined) |  | inconclusive [inhibitor, single point]
39 | CC(=O)c1cccc(Nc2ncnc3ccc(Br)cc23)c1 | inactive: -5.01% | 
40 | CC1(C)CC(=O)C2=C(C1)N(c1ccc(F)cc1)C(=O)CC2c1ccccc1 (centres undefined) |  | inconclusive [inhibitor, full curve, poor fit]
41 | COc1ccc(C(=O)NC(=S)NCc2ccco2)cc1OC | inactive: 4.5% | 
42 | CC(Oc1ccccc1)C(=O)N1CCc2ccccc2C1 (centres undefined) |  | inconclusive [inhibitor, single point]
43 | CCC1(c2ccc(F)cc2)NC(=O)N(CC(=O)c2cc(C)n(C3CC3)c2C)C1=O (centres undefined) |  | inconclusive [inhibitor, full curve, poor fit]
44 | Cc1ccc(C(=O)NC(=S)Nc2cccc(NC(=O)c3ccccc3Cl)c2)cc1[N+](=O)[O-] |  | inconclusive [inhibitor, partial curve, poor fit]
45 | Cc1ccc(C2CC(=O)Nc3cc4c(cc32)OCO4)o1 (centres undefined) |  | inconclusive [inhibitor, full curve, poor fit]
46 | Cc1ccc(C(=O)Nc2nnc(S(=O)(=O)N3CCC(C)CC3)s2)cc1 |  | inconclusive [inhibitor, single point]

Row | SMILES | activity change, negative = inhibition | Potency
47 | CCOC(=O)C1CCCN(C(=O)CN2CCN(Cc3ccc(Cl)cc3)C2=O)C1 (centres undefined) | inactive: -0.174% | 
48 | CC(/C=N/NC(=O)CSc1nnc(SCc2ccccc2)s1)=C\c1ccco1 | inactive: -7.33% | 
49 | CC(=O)Nc1ccc(NC(=O)C(C)OC(=O)CC2CCCC2)cc1 (centres undefined) |  | inconclusive [inhibitor, full curve, poor fit]
50 | COc1cccc(COC(=O)c2ccc3c(=O)n4c(nc3c2)CCC4)c1OC |  | inconclusive [inhibitor, full curve]
51 | CCC(C(=O)N1CCN(S(=O)(=O)c2ccc(F)cc2)CC1)c1ccccc1 (centres undefined) |  | inconclusive [inhibitor, single point]
52 | CCC(=NCCO)c1c(O)n(-c2ccccc2)c(=O)[nH]c1=O |  | inconclusive [inhibitor, full curve, poor fit]
53 | CSc1ncccc1C(=O)Nc1ccncc1 | inactive: -1.93% | 
54 | COC(=O)C(C)Sc1nnc(Cc2cc(=O)[nH]c(=O)[nH]2)n1-c1cc(C)ccc1C (centres undefined) | inactive: 0.516% | 
55 | Cc1cc(C)cc(NC(=O)CSc2nc3ccccc3nc2N2CCCC2)c1 |  | inconclusive [inhibitor, partial curve]
56 | Cc1ccccc1N=C1SCCN1C(=O)CN1C(=O)NC2(CCCC2)C1=O |  | inconclusive [inhibitor, full curve, poor fit]
57 | CCCc1nc(SCC(=O)N2CCC(Cc3ccccc3)CC2)c2c(=O)n(C)c(=O)n(C)c2n1 |  | inconclusive [inhibitor, full curve]
58 | CN(C(=O)COC(=O)COc1ccc(Cl)cc1)C1CCCCC1 |  | inconclusive [inhibitor, partial curve, poor fit]
59 | COc1ccc(C2/C(=C(/O)c3ccc(C)cc3)C(=O)C(=O)N2C)cc1 (centres undefined) |  | inconclusive [inhibitor, full curve, poor fit]
60 | CCCCn1c(N2CCC(Cc3ccccc3)CC2)nc2c1c(=O)[nH]c(=O)n2C | inactive: -1.5% | 
61 | CS(=O)(=O)Cc1nc2ccccc2oc1=O | inactive: -11.7% | 
62 | CCC(C)N(C(=O)COC(=O)c1cc([N+](=O)[O-])ccc1N)C1CCS(=O)(=O)C1 (centres undefined) | inactive: 2.93% | 
63 | Cc1ccc(S(=O)(=O)c2cn(CC(=O)Nc3ccc4c(c3)OCO4)c3ccccc3c2=O)cc1C | inactive: -7.11% | 
64 | CC(=O)c1ccc(OC(=O)COc2ccccc2)cc1 |  | inconclusive [inhibitor, partial curve, poor fit]
65 | Cc1ccc(Cn2ccc(NC(=O)c3cc(-c4ccc(Cl)cc4)on3)n2)cc1 | inactive: 1.11% | 
66 | Cc1cc(C(=O)N2CC(C)CC(C)C2)n(-c2ccccc2)n1 (centres undefined) |  | inconclusive [inhibitor, full curve, poor fit]
67 | CCOc1ccc(OCc2ccc(C(=O)N/N=C(\C)c3ccccn3)cc2)cc1 |  | inconclusive [inhibitor, full curve, poor fit]
68 | CCCCNc1c(-c2ccc(SC3CCCCC3)c(OC)c2)nc2ccc(Cl)cn12 |  | inconclusive [inhibitor, full curve]
69 | CC(C)CC(NC(=O)c1ccc(Cl)cc1)C(=O)O (centres undefined) |  | inconclusive [inhibitor, full curve, poor fit]
